Experimental data: the supplement of paper PMC10338343
± gives the standard deviation. This is a selection; strong and weak results do not stand in their true shares.

tested on: MIWI (PIWIL1) piRISC loaded with L1MC piRNA (30 nt); assay: pre-steady-state target cleavage rate (min^-1); MIWI and MILI are mouse PIWI proteins and EfPiwi is from a freshwater sponge; tags in brackets are library labels; higher = faster piRNA-guided slicing of the target; settings: guide: L1MC piRNA 5'p-UAACUAAAUACUAUGCAAGCUGUAGGUCCU; auxiliary factor: 500 nM mouse GTSF1
Method in brief: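 Cleave-'n-Seq measured uncleaved targets by sequencing after a transcribed, DNA-blocked target RNA library […] was mixed with 1 nM active affinity-purified piRISC holding one synthetic guide, with or without 500 nM GTSF1 partner protein, at 33 °C in HEPES–potassium acetate buffer for 0–8 or 0–960 min. Counts were normalised to depth and to weakly complementary targets, three trials were pooled, and k3 was capped at 0.0001 min^-1. A burst-and-steady-state fit gave the pre-steady-state cleavage rate.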
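Also: 1 nM active piRISC with 0.1 nM target library at 33 °C single turnover.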

Sequence | pre-steady-state target cleavage rate
UCCUGGAUGUCGUUGCAUAGUAUUUAAUUA | 0.012 ± 0.0043
UCCUGGAUCAGCUUGGUUAGUAUUUAGAAA | 0.0111 ± 0.0054
UCCUGGAUGUCCUAGCAUAGUAUUUACUUA | 0.013 ± 0.0057
UCGACCUAGUGCUUGCAUAGUAUUUUCAAA | 0.139 ± 0.025
UCCUGGUACAGGAUGCAUAGUAUUUAGUAA | 0.279 ± 0.04
UGGACCUACAGCUUGCAUAGUUAUUACAAA | 0.0207 ± 0.0062
UCCUGGAUGUCCUUGGAUAGUAUUUAGUAA | 0.0605 ± 0.013
UCCACCUACAGCUUGCAUAGUAUUAACAAA | 0.375 ± 0.056
UCCUGGAUGUCGUUGCAUAUUAUUUAGUUA | 0.00752 ± 0.0039
UCCUGGAUGAGCUUGCAUAUAUUUAGUUA | 0.00814 ± 0.0039
UCCUCCUACAGCUACCAUAGUAUUUAGUAA | 0.182 ± 0.029
UCCUGGAACAGCUUGGUUAGUAUUUAGAAA | 0.362 ± 0.058
UCCACCUACAGCUUGCAUAGUAAUUAGAAA | 0.259 ± 0.046

same assay, conditions: guide: L1MC piRNA 5'p-UAACUAAAUACUAUGCAAGCUGUAGGUCCU; auxiliary factor: none (no GTSF1)

Sequence | pre-steady-state target cleavage rate
UCCUGGAUGUCGAUGCAUAGUAUAUACUUA | < 0.0001
UCCUGGAUGUCGAACGAUUAGUAUUUAGUUA | < 0.0001
UCCUGGAUGUCGAACGUUAGUAUUUAUUUA | < 0.0001
UCCUGGAUGUCGAACGUAAGUAUUUACUAA | < 0.0001
